# Test results as given in article PMC4336329 (PLoS ONE, 2015).
# Among all 310,000 compounds or so, about 2,200 (0.71%) showed an effect of 50% or more. The effect is printed as a negative number. The list shows a part of the results.
# Target: human ether-à-go-go-related gene (hERG) potassium channel (human, UniProt Q12809)
# Assay: primary screen, population patch clamp on CHO cells stably expressing hERG
# human ether-à-go-go-related gene (hERG) potassium channel, sequence (Q12809 whole entry, looked up): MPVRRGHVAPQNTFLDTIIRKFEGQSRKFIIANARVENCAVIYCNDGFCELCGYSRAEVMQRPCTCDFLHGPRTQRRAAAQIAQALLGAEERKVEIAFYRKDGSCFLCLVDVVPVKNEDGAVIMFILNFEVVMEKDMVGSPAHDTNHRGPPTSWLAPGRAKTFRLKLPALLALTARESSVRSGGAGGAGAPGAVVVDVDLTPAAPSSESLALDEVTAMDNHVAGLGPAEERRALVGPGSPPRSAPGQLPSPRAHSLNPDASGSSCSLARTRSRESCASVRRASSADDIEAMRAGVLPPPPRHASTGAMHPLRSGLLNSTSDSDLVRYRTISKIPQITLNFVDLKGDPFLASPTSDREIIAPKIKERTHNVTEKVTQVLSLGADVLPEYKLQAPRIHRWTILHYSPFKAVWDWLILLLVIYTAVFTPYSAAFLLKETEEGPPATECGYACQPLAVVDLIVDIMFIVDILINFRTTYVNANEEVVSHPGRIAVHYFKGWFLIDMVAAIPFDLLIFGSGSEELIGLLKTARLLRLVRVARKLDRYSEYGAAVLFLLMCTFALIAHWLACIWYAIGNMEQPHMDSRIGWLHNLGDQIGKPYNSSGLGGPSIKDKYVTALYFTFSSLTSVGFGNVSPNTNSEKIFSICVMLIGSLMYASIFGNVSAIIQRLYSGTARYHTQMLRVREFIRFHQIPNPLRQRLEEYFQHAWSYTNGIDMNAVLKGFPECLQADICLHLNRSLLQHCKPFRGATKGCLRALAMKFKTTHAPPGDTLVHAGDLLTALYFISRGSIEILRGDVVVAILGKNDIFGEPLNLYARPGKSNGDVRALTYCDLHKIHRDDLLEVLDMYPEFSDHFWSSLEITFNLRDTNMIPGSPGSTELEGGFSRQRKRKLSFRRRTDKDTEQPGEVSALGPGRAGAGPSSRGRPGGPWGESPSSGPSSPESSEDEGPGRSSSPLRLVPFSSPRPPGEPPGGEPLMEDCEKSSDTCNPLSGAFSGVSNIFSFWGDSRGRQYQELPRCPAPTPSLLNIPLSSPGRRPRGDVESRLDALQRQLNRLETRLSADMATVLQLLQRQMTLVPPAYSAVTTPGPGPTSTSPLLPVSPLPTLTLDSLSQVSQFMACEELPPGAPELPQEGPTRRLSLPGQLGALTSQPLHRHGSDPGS
row,Structure (SMILES),"hERG current change (%, negative = inhibition) at 1uM"
1,CN(C)S(=O)(=O)c1cccc(NC(=O)c2cc(-c3cccs3)nn2-c2ccccc2)c1,19.3%
2,Nc1cc(-c2ccccc2)ccc1O,16.5%
3,CC(=O)OCCn1c(C)[n+](CCOC(C)=O)c2cc(Cl)c(Cl)cc21.[I-],16.7%
4,Cn1nc(OCc2ccccc2)ccc1=O,-3.38%
5,O=C1CCCC2=C1C1(CCCCC1)N=C(Nc1nc3ccccc3s1)N2,9.3%
6,COc1ccc(C(CC(=O)O)NC(=O)COc2ccccc2OC)cc1OC (stereo not shown),13.6%
7,CC(=O)c1cnc(Nc2nc(C)c3ccc(C)cc3n2)nc1C,9.48%
8,c1coc(CNc2c3c(nc4ncnn24)CCCC3)c1,-1.81%
9,CCOC(=O)c1sc(Nc2cccc(Cl)c2)nc1C,0.0612%
10,COc1ccc(CCNC(=O)/C=C/C(=O)O)cc1OC,14.7%
11,Cc1ccn2c(=O)cc(C)nc2c1,9.04%
12,CC1CCN(C(=O)Cn2nnc(-c3ccccc3)n2)CC1,12%
13,CCCC(=O)Nc1ccc2nc(SCC(=O)Nc3nccs3)sc2c1,11.9%
14,CCCC(=O)Nc1cc(OC)c(OC)cc1C(=O)O,5.79%
15,Oc1c(Cl)cc(Cl)cc1C=Nc1ccc(Br)cc1,5.33%
16,CC1(C)CC2CC(C)(CN2C(=O)CN2C(=O)c3ccccc3C2=O)C1 (stereo not shown),10.6%
17,c1ccc(-c2csc(Nc3ncccn3)n2)cc1,15.2%
18,Cc1c(NC(=O)Nc2ccc(F)cc2)c(=O)n(-c2ccccc2)n1C,15.3%
19,O=C(Nc1nc(-c2ccc(Cl)s2)cs1)c1ccco1,10.9%
20,CC1CC(=O)Nc2ccccc2N1S(=O)(=O)c1ccccc1 (stereo not shown),1.01%

row,Structure (SMILES),"hERG current change (%, negative = inhibition) at 1uM"
1,COc1ccc(C(CCN2CCN(c3ccccc3)CC2)c2c(O)cc(OC)cc2OC)cc1 (stereo not shown),10.7%
2,CCCCOc1ccc(C(=O)N/N=C/c2cn[nH]c2-c2ccc(OC)c(OC)c2)cc1,7.52%
3,CCCc1cc(=O)[nH]c(SCC(=O)c2cc(C)n(C3CC3)c2C)n1,6.07%
4,COc1ccc(C(C[N+](=O)[O-])c2c(C)[nH]n(-c3ccccc3)c2=O)cc1 (stereo not shown),21.4%
5,Cl.O=C(N/N=C1/CN2CCC1CC2)c1cc2ccccc2cc1O,24.9%
6,COc1cccc(CN(C)C(=O)c2ccc(NS(=O)(=O)c3ccc(F)cc3)cc2)c1OC,11.1%
7,C[C@@H]1NC(=O)[C@H](CCC(=O)O)NC(=O)c2cc([N+](=O)[O-])cc(F)c2NCCC[C@@H](C(N)=O)NC1=O,18.6%
8,CCCN(CCC)C(=O)c1c(NC(=O)CC)sc2c1CCCCC2,15.3%
9,CCOC(=O)c1ccc(NC(=O)c2cc(OC)c(OC)c(OC)c2Br)cc1,10.3%
10,Nc1cc(=O)[nH]c(SCCSc2ccccc2F)n1,17.9%
11,O=C(CCc1nc2ccccc2c(=O)[nH]1)Nc1nnc(SCc2ccccc2F)s1,-0.582%
12,Cc1cccc2cc(CN(CCCO)C(=O)Nc3cccc(Cl)c3)c(=O)[nH]c12,-8.67%
13,O=C1C=C(N2CCCCC2)C2(CCCCC2)O1,10.8%
14,CN(CC(=O)N1CCN(c2ccccn2)CC1)S(=O)(=O)c1cccc2nsnc12,0.884%
15,CC(=O)NC(c1ccc(Cl)cc1Cl)c1ccc2cccnc2c1O (stereo not shown),17.6%
16,O=C(CSc1ncnc2c1oc1ccccc12)c1cccs1,12.4%
17,CCC(C)n1c(SCC(=O)Nc2cc(C(C)(C)C)nn2-c2ccccc2)nc2ccccc2c1=O (stereo not shown),5.96%
18,CCn1c(SCC(=O)NC2CCCC2)nnc1-c1ccco1,15.5%
19,COC(=O)C1=C(c2ccc(-c3ccccc3)c(F)c2)C[C@@H]2CC[C@H]1N2C(=O)N1CCCC1,-5.13%
20,COc1cccc(CN(C)C(=O)c2ccc3c(=O)n4c(nc3c2)CCC4)c1,2.37%

row,Structure (SMILES),"hERG current change (%, negative = inhibition) at 1uM"
1,COCCN(C(=O)c1ccco1)c1nnc(-c2ccc(F)cc2)s1,11.7%
2,Cc1ccc(S(=O)(=O)Nc2ccc(-c3ccc4nncn4n3)cc2)cc1,24.9%
3,Cc1cc(C(=O)Nc2ccc(Br)cc2)cs1,-11.7%
4,CCOC(=O)CNC(=O)c1cccs1,13.7%
5,O=C(Cc1ccccc1)NCC(=O)OC(c1ccccc1)c1ccccc1,10.1%
6,O=C(Nc1nc2ccccc2[nH]1)c1cccs1,10.8%
7,O=C(O)c1cc(-c2ccc(/C=N/Nc3ccc(Cl)cc3)o2)ccc1Cl,16.5%
8,CNC(=S)N1C2CCCC1CC(NC(=O)c1ccc(F)cc1)C2 (stereo not shown),12.4%
9,Cc1cc(C)c(NC(=O)CS(=O)CC(=O)N2CCN(c3cccc(C)c3C)CC2)c(C)c1 (stereo not shown),12.2%
10,CCOC(=O)Cc1csc(NC(=O)C(NC(=O)C2CCC(C)CC2)C(C)C)n1 (stereo not shown),18.7%
11,O=C(CSc1ncccn1)NCc1ccccc1Cl,4.91%
12,CCc1nnc(NC(=O)CSc2nnc(Cc3ccc(OC)cc3)o2)s1,12.8%
13,CC(/C=N/NC(=O)c1ccc(Br)cc1)=C\c1ccccc1,5.64%
14,O=C(c1ccco1)N1CCN(c2c([N+](=O)[O-])nn(-c3ccc(Cl)cc3)[n+]2[O-])CC1,-45.1%
15,CCO[C@@H]1OC(C(N)=O)=C[C@H](c2ccccc2)[C@H]1CCCO,12.4%
16,CCC12CCCN3CCc4c(n(c5ccccc45)C(O)(C(=O)OC)C1)C32 (stereo not shown),-2.18%
17,CN1C(=O)CC(N2CCN(c3ccccc3)CC2)C1=O (stereo not shown),18.7%
18,C=CCn1c(SCC(=O)NC2CCCC2)nc2c([nH]c3ccccc32)c1=O,-16.9%
